# Laboratory results from ChEMBL document CHEMBL1157539, “Thousands of chemical starting points for antimalarial lead identification” (Nature, 2010).
# The full ranking holds about 13,000 compounds; the median of “IFI” is about 4, and the highest 2% start at about 17. Some of the results follow.
# Test: GSK_TCMDC: Inhibition Frequency Index (IFI). The number of non-kinase HTS assays where a compound showed > 50 % inhibition, expressed as a percentage of the number of such assays in which the compound was tested (-0 is zero)
# Assay type: functional
row,SMILES,IFI [%]
1,COc1cc(C=C(C2=NC(=O)CS2)c2nc3cccnc3n2C)ccc1O,2.78
2,CC(C)N(Cc1cnc2nc(N)nc(N)c2n1)c1ccc(Cl)c(Cl)c1,1.49
3,O=C(Nc1ccc2c(c1)CCC2)c1cnc(N2CCN(c3ccncc3)CC2)c(Cl)c1,14.3
4,CCOC(=O)c1ccc(NC(=O)Nc2cccc(-c3ccc(-c4nc5cccc(C)c5[nH]4)s3)c2)cc1,2.02
5,O=C(NC1CCCC1)c1cc2c(=O)n3ccccc3nc2[nH]/c1=N/CCc1ccccc1,2.56
6,CCCC(=O)c1cnc2cc(O)ccc2c1Nc1ccccc1C,2.78
7,CCC(C)c1ccc(-n2c(Nc3ccccc3)nc3cc(S(N)(=O)=O)ccc32)cc1 (stereo unspecified),1.53
8,CCC(C)(C)c1ccc(OCC(O)CN2CCCCC2)c(C(C)(C)CC)c1 (stereo unspecified),7.41
9,CC1(C)CCNc2cc(NC(=O)c3ccc(-c4ncccc4C(F)(F)F)cc3)ccc21,12.7
10,O=C(c1cc(-c2ccco2)n[nH]1)N1CCN(S(=O)(=O)c2ccc(Cl)cc2)CC1,6.98
11,Nc1cc(-c2cccc(Cl)c2)nn1-c1ccnc2cc(Cl)ccc12,0
12,Cc1c(C)c2c(c(C)c1O)CC[C@@](C)(C(=O)N1CCC(CCN3CCC(c4c[nH]c5ccccc45)CC3)CC1)O2,5.19
13,O=C(Cc1c[nH]cn1)Nc1cccc(-c2ccc(-c3nc4cc(F)ccc4[nH]3)cc2)c1,3.7
14,CN1CCC(Oc2cc(NC(=O)Nc3ccc(-c4ccncc4)c(Cl)c3)ccc2Cl)CC1,7.58
15,COc1cc(-c2ccccc2)ccc1C(=O)Nc1ccc2c(c1)N(C)CCC2,4.9
16,CC(=O)Nc1ccc(CN(Cc2cccc(OC(C)(C)C)c2)Cc2ccc3c(c2)OCCO3)cc1,3.13
17,COc1c(Br)cc(Br)cc1-c1ccc(CN2CC3CCC2CC3)[nH]1,21.1
18,Cc1cccc(NC(=O)NC2CCN(CCCCCNC(=O)/C=C/c3ccc(Cl)c(Cl)c3)CC2)c1,4.67
19,CCOc1cc2ncnc(Nc3ccc(OCc4c(F)cccc4F)c(OC)c3)c2cc1OCC,0

row,SMILES,IFI [%]
1,Cc1[nH]c(C)c(-c2ccc(Oc3cccc(Cl)c3)cc2)c(=O)c1Cl,12.8
2,CCOc1cc(CC)ccc1C1CCN(CCN2CCC(CNC(=O)c3ccc(-c4ccc(C#N)cc4)cc3)CC2)CC1,10.1
3,CCCC(C)Nc1nc(C)cc(N[C@@H](CC(C)C)C(=O)NCCOc2ccccc2)n1 (stereo partly specified),4.65
4,CC(C)(C)Oc1ccc(C[C@@H]2NC3(C(=O)N(Cc4ccc(Cl)c(Cl)c4)c4ccccc43)C3C(=O)N(c4ccc(Br)cc4)C(=O)C32)cc1 (stereo partly specified),0
5,COc1cccc(-c2cnc(N)c(-c3nc4ccc(F)cc4[nH]3)c2)c1,9.17
6,COc1ccccc1CCNC(=O)c1cnc(N2CCN(c3ccncc3)CC2)c(Cl)c1,10.4
7,O=C(/C=C/c1cccc(C(F)(F)F)c1)NCCCCCN1CCN(C(=O)Nc2ccc(Cl)c(Cl)c2)CC1,6.16
8,CN(C)C(=O)n1cnc(S(=O)(=O)N(C)c2ccc(Cl)cc2)n1,3.57
9,CCc1cc2c3c(N)nc(N)nc3ccc2n1C(CC)CC,7.63
10,Cc1ccc(NC(=O)c2ccc(Cl)c(Cl)c2)cc1-c1ccc(C(=O)Nc2ccncc2)cc1,8.82
11,Clc1ccc(-c2nc3cc(-c4ccc5nc(-c6ccc(Cl)cc6)[nH]c5c4)ccc3[nH]2)cc1,2.22
12,CCN(CC)CCCC(C)Nc1ccnc2ccc(OC)cc12 (stereo unspecified),0.73
13,COc1ccc(NC(=O)c2ccc(-c3cc(NC(=O)c4ccnc(N5CCCC5)c4)ccc3C)s2)cc1N1CCN(C)CC1,5.79
14,CCOc1cc(C(=O)Nc2ccc3nc(N4CCCCC4)cc(C)c3c2)cc(OCC)c1OCC,3.23
15,CO/C(=C\C=C\c1cc2cc(Cl)c(Cl)cc2[nH]1)C(=O)NCCCN1CCN(c2cccc(OCC(=O)Nc3cccc(C(=O)c4ccccc4)c3)c2)CC1,6.15
16,c1nc2nc3c(c(Nc4ccc5c(c4)CCC5)n2n1)CCC3,0.74
17,CC(C)Nc1cc(C(=O)N[C@@H](Cc2ccccc2)[C@H](O)CNCc2cccc(C(F)(F)F)c2)c(F)c(N2CCCCS2(=O)=O)c1,5.22
18,COc1ccc(-c2ccc(NC(=O)c3ccc(Cl)cc3)cc2)cc1CN(C)CCO,4.95
19,CS(=O)(=O)c1ccccc1CNC(=O)c1ccc(-c2cccc(-c3nc4cc(C(F)(F)F)ccc4[nH]3)c2)cc1,3.81

row,SMILES,IFI [%]
1,Cc1ccc(C(=O)Nc2ccc(OC3CCN(CCC(C)C)C3)c(Cl)c2)cc1 (stereo unspecified),10.8
2,COc1ccc(NC(=O)c2ccc(Br)c(C)c2)cc1N1CCN(CCCCc2ccccc2)CC1,6.3
3,COc1ccc2ncc(F)c(CCN3CC[C@H](NCc4cc(C#N)c5c(c4)OCCO5)[C@H](O)C3)c2c1,3.74
4,COCCn1c(Sc2ncnc3sccc23)nc2ccccc21,0
5,COCCCN=C(S)NN=C(C)c1ccccn1,4.29
6,N#Cc1ccc2c(c1)CCN(CCC1CCC(NC(=O)/C=C/c3nc4ccccc4s3)CC1)CC2 (stereo unspecified),0
7,CC(C)(C)c1cc(C(=O)N2CCN(c3ccc(C(F)(F)F)cn3)CC2)n(Cc2ccc(F)cc2)n1,1.99
8,CC(=O)Nc1cc(C(=O)Nc2cccc(-c3csc(-c4nc5ccccc5[nH]4)c3)c2)ccc1C,3.64
9,CC(Sc1nc2sccc2c(=O)n1C)C(=O)Nc1ccc2c(c1)OCO2 (stereo unspecified),-0
10,O=c1nc(NCCCCCN2CCC(c3c[nH]c4ccccc34)CC2)[nH]cc1Cc1ccc(Cl)c(Cl)c1,5.04
11,COC1CCC(C(=O)Nc2ccc(-c3cccc(-c4nc5cc(C(F)(F)F)ccc5[nH]4)c3)cc2)CC1 (stereo unspecified),6.25
12,CC(=NNC(S)=NCc1ccco1)c1ccccn1,9.17
13,CC(C)Cn1c(Sc2ccc(C#N)c([N+](=O)[O-])c2)nnc1-c1ccc(N(C)C)cc1,2.86
14,CCCCCCCCNc1c2ccc(Cl)cc2nc2ccc(OC)cc12,3.7
15,CCNc1cc(C(=O)N[C@@H](Cc2ccccc2)[C@H](O)CNCCCc2ccc(OC)cc2)cc(N2CCCC2=O)c1,2.9
16,COc1ccc(CNc2ccc3nc(N)nc(N)c3c2)cc1,3.85
17,CC(C)C[C@H](NC(=O)c1cc2ccccc2s1)C(=O)N[C@H]1CCN(Cc2ccc(OCCCN(C)C)c(Cl)c2)C1,17.2
18,O=C(NCc1ccc(C(=O)NC2CCCCCC2)cc1)c1ccc(O)c(-c2ccc(Cl)c(Cl)c2)c1,0.74
